In PMC4336329 (PLoS ONE, 2015):
The campaign covered roughly 310,000 compounds. About 2,200 (0.71%) showed an effect of 50% or more. Effects have a minus sign here. This is one part of the list.

target: human ether-à-go-go-related gene (hERG) potassium channel (human, UniProt Q12809); assay: primary screen, population patch clamp on CHO cells stably expressing hERG
Sequence (Q12809 whole entry, looked up): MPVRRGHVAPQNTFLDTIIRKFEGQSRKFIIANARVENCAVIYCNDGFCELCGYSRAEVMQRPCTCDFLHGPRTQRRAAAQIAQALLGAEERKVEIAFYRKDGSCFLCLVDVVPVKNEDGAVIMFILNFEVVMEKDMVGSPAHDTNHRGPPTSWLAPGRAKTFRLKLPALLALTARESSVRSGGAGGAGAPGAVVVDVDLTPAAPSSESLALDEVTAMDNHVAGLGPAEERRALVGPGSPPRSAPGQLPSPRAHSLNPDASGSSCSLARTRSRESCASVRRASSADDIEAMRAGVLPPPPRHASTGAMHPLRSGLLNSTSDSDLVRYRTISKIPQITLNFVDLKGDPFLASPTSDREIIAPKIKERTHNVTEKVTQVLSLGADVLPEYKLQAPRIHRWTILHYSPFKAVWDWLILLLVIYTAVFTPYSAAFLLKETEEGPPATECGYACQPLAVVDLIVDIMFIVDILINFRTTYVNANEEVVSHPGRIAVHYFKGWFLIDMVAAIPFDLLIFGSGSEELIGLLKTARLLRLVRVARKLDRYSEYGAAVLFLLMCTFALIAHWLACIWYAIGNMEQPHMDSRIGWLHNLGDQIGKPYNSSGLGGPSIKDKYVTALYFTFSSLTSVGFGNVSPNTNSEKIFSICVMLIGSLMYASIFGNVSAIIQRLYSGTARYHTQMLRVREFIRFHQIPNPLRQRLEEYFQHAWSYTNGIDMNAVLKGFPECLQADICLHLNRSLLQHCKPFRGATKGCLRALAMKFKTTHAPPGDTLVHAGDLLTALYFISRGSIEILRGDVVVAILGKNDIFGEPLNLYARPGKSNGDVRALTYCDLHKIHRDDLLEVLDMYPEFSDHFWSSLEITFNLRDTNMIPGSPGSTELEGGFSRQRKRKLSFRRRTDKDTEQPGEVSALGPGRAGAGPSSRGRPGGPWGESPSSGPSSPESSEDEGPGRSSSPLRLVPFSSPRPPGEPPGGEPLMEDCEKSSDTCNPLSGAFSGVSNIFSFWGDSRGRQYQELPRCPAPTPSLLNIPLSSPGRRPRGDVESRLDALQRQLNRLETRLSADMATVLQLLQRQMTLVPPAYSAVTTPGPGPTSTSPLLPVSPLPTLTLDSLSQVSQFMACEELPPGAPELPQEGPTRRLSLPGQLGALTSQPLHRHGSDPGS

| SMILES | hERG current change (%, negative = inhibition) at 1uM |
| --- | --- |
| CCOC(=O)C1CCCN(CCCc2ccccc2)C1 (centres unmarked) | -2.62% |
| O=C(NNC(=O)c1cc(-c2ccc(Cl)c(Cl)c2)nc2ccccc12)Nc1ccccc1 | 3.86% |
| O=C(Nc1nnc(C2CC2)s1)c1cc(S(=O)(=O)N2CCN(c3ccccc3)CC2)ccc1Cl | -4.06% |
| COc1ccc(C(=O)Nc2nc3cc(OC)c(OC)cc3c(=O)[nH]2)cc1 | 8.58% |
| FC(F)(F)c1cccc(NC(=S)NCc2ccccn2)c1 | 8.26% |
| CCOC(=O)c1cc(-c2cccnc2)nn1-c1ccccn1 | 7.68% |
| CC1CCCN1CC#CC(O)(c1ccccc1)c1ccccc1.Cl (centres unmarked) | -9.44% |
| O=C(NCC(c1cccnc1)N1CCOCC1)Nc1ccccc1 (centres unmarked) | 12.4% |
| COC(=O)C1=CO[C@@H](OC2OC(CO)C(O)C(O)C2O)[C@@H]2[C@@H](C)[C@@H](O)C[C@H]12 (some centres unmarked) | 7.5% |
| COc1ccc(Cl)cc1NC(=O)CN1CCCCCC1 | 5.35% |
| CN(C)CCCNc1ncnc2scc(-c3ccccc3)c12.O=C(O)C(=O)O | -2.63% |
| COc1ccccc1NC(=O)N1CCN(c2ccc3nnc(-c4ccc(F)cc4)n3n2)CC1 | 13.5% |
| C=CCNCc1ccc(C(=O)NCCCCCCC)cc1[N+](=O)[O-] | 4.53% |
| CCOC(=O)c1ccc(NC(=O)COc2ccc(S(=O)(=O)N3CCCC3)cc2)cc1 | 6.91% |
| COc1ccc(CC(=O)NNC(=O)c2cnccn2)cc1 | 11.1% |
| O=C(CSc1ccc(Cl)cc1)Nc1cccc(-c2nnc(-c3ccco3)o2)c1 | 11% |
| COC(=O)C1=C(C(=O)OC)C2(OC1c1cccc(F)c1)C(=O)c1ccccc1C2=O (centres unmarked) | 11.6% |
| O=C(Nc1ccc(NC(=O)c2cccnc2)cc1)c1ccccc1 | 9.97% |
| CCOC(=O)C(=CNc1ccc(C#N)cc1)C(=O)OCC | -9.75% |
| CCCCN1CCNC[C@@H]1Cc1ccccc1 | 7.92% |
| O=c1cc(-c2ccc(O)cc2)oc2cc(O)c(C3OC(CO)C(O)C(O)C3O)c(O)c12 (centres unmarked) | 11.2% |
| S=C(NCc1ccccc1)Nc1ccc(Cl)cc1 | -4.75% |

| SMILES | hERG current change (%, negative = inhibition) at 1uM |
| --- | --- |
| CCOc1ccc(N(CC(=O)Nc2ccc(OC)cc2)S(C)(=O)=O)cc1 | 7.86% |
| NS(=O)(=O)c1ccc(NC(=S)NC(=O)c2cccnc2)cc1 | 7.17% |
| COc1ccccc1NC(=O)Nc1ccc(NC(=O)c2ccccc2O)cc1 | -2.66% |
| N/C(=N\OC(=O)c1cnn(-c2ccccc2)c1C(F)(F)F)c1ccc(C(F)(F)F)cc1 | 14.4% |
| CCn1c(SCC(=O)N(C)CC(=O)Nc2cccc(OC)c2)nnc1-c1ccco1 | 15.3% |
| Cc1ccc(CN(Cc2cc3cc4c(cc3[nH]c2=O)OCCO4)Cc2nnnn2Cc2ccco2)cc1 | 1.81% |
| Cc1cccc(C(=O)Nc2ccc(NC(=O)Cc3ccc(Cl)cc3)cc2)c1 | 13.1% |
| CCOc1ccc(NC2c3ccccc3C(=O)N2Cc2ccco2)cc1 (centres unmarked) | 5.84% |
| O=c1c(-c2ccccc2Cl)coc2c(CN3CCCCC3)c(O)ccc12 | 14.3% |
| C/C(CC(=O)NCc1ccco1)=N\NC(=O)Cc1ccc(Cl)cc1 | 12.6% |
| Cc1cc(Cl)cc2c(N=Nc3ccccc3C(=O)O)c(O)[nH]c12 | 17.4% |
| CCNc1nc(N)nc(Oc2ccc(OCc3ccccc3)nn2)n1 | 10.7% |
| Cc1sc2ncnc(OCC(=O)Nc3ccc4c(c3)OCCO4)c2c1C | 11% |
| COc1cccc(NC(=O)CN2CC(c3ccccc3)CC2=O)c1 (centres unmarked) | 5.07% |
| COc1cccc(NC(=O)CN2CCN(c3nc(-c4cccc(OC)c4)cs3)CC2)c1 | 10.4% |
| Cc1ccc(C(=O)NC(C(=O)Nc2cccc(S(N)(=O)=O)c2)C(C)C)cc1 (centres unmarked) | 7.73% |
| NC(N)=NCCCC(NC(=O)c1ccccc1)C(=O)Nc1ccc2ccccc2c1 (centres unmarked) | 18.6% |
| COc1ccc(C(=O)N2CCN(c3c(C)cccc3C)CC2)cc1OC | -15.3% |
| CCCOc1ccc(CN2CCOCC2)cc1OC.Cl | 8.36% |
| CC(C)(C)OC(=O)N1CCC(CNC(=O)c2ccccc2)CC1 | 11.9% |
| Nc1c(C(=O)NC2CCCC2)c2nc3ccccc3nc2n1N | 20% |
| COc1cc2c(cc1OC)CN(C(=O)CCNS(=O)(=O)c1ccccc1F)CC2 | 9.48% |

| SMILES | hERG current change (%, negative = inhibition) at 1uM |
| --- | --- |
| Cc1ccc(C2(c3noc(CN4CCC(c5ccncc5)CC4)n3)CCCC2)cc1 | 8.2% |
| COCCCn1c(SCC(=O)NC2CCCCC2)nc2ccccc2c1=O | 9.04% |
| CC(Sc1nnc(-c2ccccc2F)n1C1CC1)C(=O)NC(N)=O (centres unmarked) | 14.6% |
| CN(c1ccccc1)c1nc(N)c(C#N)c(CC#N)c1C#N | 10.8% |
| CCOC(=O)N1CCN(C(=O)/C=C/c2ccc(C(C)(C)C)cc2)CC1 | 9.05% |
| CCCCCCc1nnc(NC(=O)OCC)s1 | 0.51% |
| Cc1cc(NC(=O)CN2CCOCC2)n(-c2ccccc2)n1 | 11.6% |
| CC(C(=O)Nc1ccccc1C(=O)N1CCOCC1)N(c1ccccc1)S(C)(=O)=O (centres unmarked) | 11.7% |
| COc1ccc(CNC(=O)CSc2nc(SC)ns2)cc1 | 9.78% |
| COc1ccc(CN2CCCC(CO)(Cc3ccc(F)cc3)C2)cc1C (centres unmarked) | 2.78% |
| O=[N+]([O-])c1cccnc1SCc1ccccc1 | 11.7% |
| Cc1ccccc1CSc1nc2ccccc2c(=O)n1C | 23.6% |
| CC(=O)Nc1ccc(-c2nnc(SCC(=O)c3ccc4c(c3)Cc3ccccc3-4)n2C)cc1 | 9.02% |
| O=C(NC(C(=O)N/N=C/c1c2ccccc2cc2ccccc12)c1n[nH]c(=O)c2ccccc12)c1ccccc1 (centres unmarked) | 15.3% |
| N#Cc1ccc(NCCc2ccccn2)c([N+](=O)[O-])c1 | -33.6% |
| CCC1Sc2ccc(S(=O)(=O)CCC(=O)Nc3c(Cl)cc(OC)cc3OC)cc2NC1=O (centres unmarked) | 8.92% |
| CC(=O)c1ccc(NC(=O)CSc2nc(C3CC3)nc3ccccc23)cc1 | 11.6% |
| CC(=O)Nc1ccc2c(c1)NC(=O)CC2 | 9.36% |
| COc1ccc(CNC(=O)C2=CC(c3ccc(OC)c(OC)c3)=NS(=O)(=O)N2C)cc1 | 1.34% |
| COc1ccc(CNC(=O)CCC(=O)Nc2ccc(Cl)cc2)cc1 | 10.9% |
| CC(=O)N1CCN(c2cc(N3CCc4ccccc4C3)c(F)cc2[N+](=O)[O-])CC1 | 1.37% |
| CC(NC(=O)CN(C)CC(=O)Nc1ccc(Cl)c(C(F)(F)F)c1)c1ccccc1 (centres unmarked) | 11.3% |

| SMILES | hERG current change (%, negative = inhibition) at 1uM |
| --- | --- |
| COc1cc2c(cc1OC)C(COc1ccc3c(C)cc(=O)oc3c1)N(C(=O)c1ccco1)CC2 (centres unmarked) | 18.8% |
| CN1CCN(S(=O)(=O)c2cccc(C(=O)N(Cc3nnc(-c4ccc(Cl)cc4)o3)C3CC3)c2)CC1 | -20% |
| CCN(C(=O)COC(=O)c1cc(-c2cccc3ccccc23)nc2ccccc12)C1CCS(=O)(=O)C1 (centres unmarked) | -3.46% |
| Cc1ccc(S(=O)(=O)NCCC(=O)NCc2cccnc2)cc1 | 10% |
| CCOc1ccccc1-n1c(C)nc2cc(C(=O)O)ccc21 | 3.54% |
| O=C(NCc1ccccn1)c1ccc(Cl)c(S(=O)(=O)N2CCCCC2)c1 | 17.1% |
| Cc1cc(C)n(C(=O)c2nn(C)c(C)c2[N+](=O)[O-])n1 | 16.1% |
| O=C(Nc1ccc(Cl)cc1)N1CCC(CO)(Cc2ccccc2)CC1 | 4.29% |
| Cc1onc(-c2ccccc2Cl)c1C(=O)N(Cc1nc(-c2ccccc2)no1)C1CCCCC1 | -7.05% |
| O=C(Nc1ccc(-c2ccccc2)cc1)c1ccco1 | 9.06% |
| CCOC(=O)NN1C(=O)c2ccccc2NC1c1ccccc1F (centres unmarked) | 6.19% |
| CCC(CC)c1nc(NCCC(=O)O)c2ccccc2n1 | 11.6% |
| COc1ccc2occ(C(=O)c3coc4ccc(O)c(CN(C)C)c34)c2c1.Cl | -29.5% |
| Nc1ccc(C(=O)Nc2ccccc2N)cc1 | 11.8% |
| Cn1c(=O)c2c(nc(CN3CCN(C(=O)c4ccco4)CC3)n2CCCO)n(C)c1=O | 2.81% |
| Cc1nc(SCC(=O)NCc2ccc(F)cc2)c2c(=O)n(C)c(=O)n(C)c2n1 | 15.3% |
| NC(=O)CC[C@@H]1NC(=O)[C@H](CO)NC(=O)c2cc([N+](=O)[O-])cc(I)c2OCC[C@@H](C(N)=O)NC1=O | 14.9% |
| CC[C@@]12C(=O)N(c3cccc(F)c3)C(=O)N1[C@H](c1ccc(Br)cc1)[C@@H]1C(=O)N(C(C)(C)C)C(=O)[C@@H]12 | 7.06% |
| Cc1ccc(-c2cc(-c3ccccc3)nc(Cl)n2)cc1 | 1.09% |
| Cc1ccc(C2CC(=O)N3CN(Cc4ccco4)CSC3=C2C#N)cc1 (centres unmarked) | 6.5% |
